# Measured values from PubChem BioAssay AID1347120 (National Center for Advancing Translational Sciences (NCATS), 2019).
# Out of some 390,000 compounds screened, about 930 (0.24%) were called active. Inconclusive means that the source gave no clear call. Such entries were picked first, then a sample of the others. Calls come from the whole dose curve; as a rule, active = well fitted activation curve with a large enough effect; inconclusive = small, poorly fitted or top-dose-only effect; inactive = no such curve, though single readings can be large or run the other way. Potencies of inconclusive entries are doubtful fits and often do not repeat.
# Experiment: qHTS for Suppressors of FUS Proteinopathy: Primary screen using FUS-linked yeast assay; note: nearly all actives have a fitted effect of over 55% in size
# Conditions: S. cerevisiae FUS-expressing, OD600, 24 h; Potency: growth rescue; series mostly up to 76.6 µM
# Outline: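 Toxicity suppression screen in FUS-yeast. Cells induced with 2% galactose, starting OD 0.005, treated 24hr at 30C with compounds at multiple final concentrations; growth by OD600.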
# Potency is the fitted concentration of half-maximal effect; tags give direction and shape of the fitted curve.
row,Compound,Potency
1,COc1ccc(NC(=O)N(C)[C@H]2C[C@H]3c4[nH]c5ccc(-c6ccc(OC)cc6)cc5c4CCN3C(=O)[C@H]2[C@H](C)O)cc1,"inconclusive: 50.1 µM [activator, single point]"
2,COc1ccc(CN(C)C(=O)COC(=O)c2cc([N+](=O)[O-])ccc2N2CCCC2)c(OC)c1OC,"inconclusive: 1.12 µM [activator, full curve, poor fit]"
3,CC(=O)N1CCC2(CC1)C/C(=N\NC(=S)Nc1ccccc1C)c1cc(O)ccc1O2,"inconclusive: 50.1 µM [activator, single point]"
4,CCOc1ccccc1CNS(=O)(=O)c1ccc(-c2cnc(C3CC3)o2)cc1,"inconclusive: 31.6 µM [activator, single point]"
5,CCCCOCCCNC(=O)C[C@H]1C(=O)N(Cc2ccc(OC)cc2)C2=CCCC[C@@]21C(=O)OCC,inactive
6,CCCCCNC(=O)C(c1cccc2ccccc12)n1c(=O)c(-c2ccco2)nc2ccccc21 (stereo unspecified),"inconclusive: 20 µM [activator, single point]"
7,c1ccc(OCc2nnnn2-c2ccccc2)cc1,inactive
8,COc1ccc(/C=N/NC(=O)c2ccc(CN3C(=O)c4cccc5cccc3c45)cc2)cc1O,"inconclusive: 35.5 µM [activator, single point]"
9,CSc1ccc(CCNC(=O)c2c(C)nn(-c3ccc(F)cc3)c2-n2cccc2)cc1,"inconclusive: 8.91 µM [activator, partial curve]"
10,CCN(CC)C(=O)Cn1cc(SCC(=O)Nc2cc(OC)ccc2OC)c2ccccc21,"inconclusive: 28.2 µM [activator, single point]"
11,Cn1c(SC/C=C/c2ccccc2)nnc1-c1cccnc1,inactive
12,COc1ccc2c(CC(=O)Nc3nc(C)cs3)coc2c1,inactive
13,Cc1onc(-c2ccc(Cl)cc2Cl)c1-c1csc(COc2ccccc2)n1,"inconclusive: 0.891 µM [activator, partial curve, poor fit]"
14,O=C1C(Cc2ccccc2)Nc2ncnc(N3CCN(c4ccccc4)CC3)c2N1Cc1ccc(Cl)cc1 (stereo unspecified),"inconclusive: 12.6 µM [activator, partial curve]"
15,COc1ccccc1Nc1ccc(NS(=O)(=O)c2ccc(C(C)=O)cc2)cc1,"inconclusive: 31.6 µM [activator, single point]"
16,COc1ccccc1N(C)S(=O)(=O)c1ccc(C(=O)Nc2cccc(S(=O)(=O)N3CCOCC3)c2)cc1,"inconclusive: 20 µM [activator, single point]"
17,CCC1CCCCN1S(=O)(=O)c1ccc2c(c1)CCN2C(=O)C1CCC1 (stereo unspecified),inactive
18,CCCCC(=O)N/N=C/c1ccc(Sc2cccc3cccnc23)o1,inactive
19,N=c1c2c(n(Cc3ccc(Br)cc3)c3c1CCC3)CCCC2,inactive
20,Cc1cccc(NS(=O)(=O)c2ccc3c(c2)n(C)c(=O)n3C)c1C,inactive
21,Cc1ccc(CNC(=O)C2CCN(S(=O)(=O)c3ccc4c(c3)CC(C)N4C(=O)C3CC3)CC2)cc1 (stereo unspecified),"inconclusive: 31.6 µM [activator, single point]"
